{"source": "the supplement of paper PMC7726561", "note": "Whole data set: some 1,400 sequences, median “thermal melting temperature (Tm) of peptide-HLA complex” near 60, cut for the lowest 2% near 45. The list shows a part of the results.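 Also: cell lysates heated 10 min at 37–73 °C, remaining pHLA pulled down with pan-class I antibody, peptides quantified by DIA-MS versus 37 °C, Tm where half the complex is lost.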"}
{"target": "HLA-B*07:02", "assay": "thermal melting temperature (Tm) of peptide-HLA complex; higher = more thermostable pHLA complex", "details": "C1R-B*07:02", "units": {"thermal melting temperature": "°C"}}
{"sequence": "VPNQKRLTL", "thermal melting temperature": 61.2}
{"sequence": "HPISSEELLSL", "thermal melting temperature": 58.6}
{"sequence": "SPLQAPTPL", "thermal melting temperature": 62.9}
{"sequence": "LPSILNQL", "thermal melting temperature": 59.3}
{"sequence": "IPRRGEIGL", "thermal melting temperature": 57.6}
{"sequence": "APAPPTTTTI", "thermal melting temperature": 61}
{"sequence": "IARNLTQQL", "thermal melting temperature": 57.4}
{"sequence": "IPRITIEM", "thermal melting temperature": 62.4}
{"sequence": "FPHLVHAEL", "thermal melting temperature": 59.5}
{"sequence": "LPHSATVTL", "thermal melting temperature": 60.7}
{"sequence": "VPQESRFNL", "thermal melting temperature": 57.1}
{"sequence": "RPKLPEDPL", "thermal melting temperature": 59.2}
{"sequence": "SPRWGGIM", "thermal melting temperature": 61}
{"sequence": "KPKTPSLTVF", "thermal melting temperature": 61.7}
{"sequence": "TPADARIQIL", "thermal melting temperature": 61.1}
{"sequence": "RPNPGFSML", "thermal melting temperature": 60.4}
{"sequence": "RPIRQILYL", "thermal melting temperature": 56.3}
{"sequence": "SPTSVRQMAL", "thermal melting temperature": 58}
{"sequence": "APRGPGAEL", "thermal melting temperature": 61.5}
{"sequence": "KPIQRTIL", "thermal melting temperature": 58.4}
{"sequence": "LPAPKWAEL", "thermal melting temperature": 59.8}
{"sequence": "RPFEDQTSL", "thermal melting temperature": 57.8}
{"sequence": "YPRLSIPNL", "thermal melting temperature": 60.5}
{"sequence": "IPFSNPRVL", "thermal melting temperature": 61.4}
{"sequence": "GAAVRIGSVL", "thermal melting temperature": 59.4}
{"sequence": "LPSTRLGTL", "thermal melting temperature": 61.1}
{"sequence": "SPIIRPLL", "thermal melting temperature": 61.8}
{"sequence": "NVRPPNTAL", "thermal melting temperature": 56.8}
{"sequence": "APRPYASSL", "thermal melting temperature": 61}
{"sequence": "SPSLPNISL", "thermal melting temperature": 64.4}
{"sequence": "TVRAVIATL", "thermal melting temperature": 60.1}
{"sequence": "VPRPGTAL", "thermal melting temperature": 59.1}
{"sequence": "KPNHTLVLL", "thermal melting temperature": 59.2}
{"sequence": "KPRLETIEL", "thermal melting temperature": 60.3}
{"sequence": "VPNVHGAL", "thermal melting temperature": 57.4}
{"sequence": "AAYLRALSL", "thermal melting temperature": 62.3}
{"sequence": "SPTKAVPAL", "thermal melting temperature": 50.9}
{"sequence": "APRPGLLSL", "thermal melting temperature": 64.4}
{"sequence": "VPYHGEVPVSL", "thermal melting temperature": 59.6}
{"sequence": "TPAAVRELVL", "thermal melting temperature": 60.8}
{"sequence": "HPAGPRTVF", "thermal melting temperature": 59.1}
{"sequence": "WPNARISVM", "thermal melting temperature": 64}
{"sequence": "AVRLITSSL", "thermal melting temperature": 61.7}
{"sequence": "RPSGLHGDVSL", "thermal melting temperature": 57.7}
{"sequence": "IIREPLTEL", "thermal melting temperature": 51}
{"sequence": "QPAPAWTTF", "thermal melting temperature": 62.1}
{"sequence": "TPSAGKAML", "thermal melting temperature": 53.5}
{"sequence": "QPRDPSSTL", "thermal melting temperature": 43.5}
{"sequence": "LPDLQRSKQAL", "thermal melting temperature": 60.3}
{"sequence": "SPDLVRVQL", "thermal melting temperature": 60.7}
{"sequence": "HPFPGPGL", "thermal melting temperature": 56.2}
{"sequence": "RPTDKPLRL", "thermal melting temperature": 57.9}
{"sequence": "KPMKSVLVV", "thermal melting temperature": 56.2}
{"sequence": "KPLSGLLNAL", "thermal melting temperature": 61.6}
{"sequence": "KPRPIIPML", "thermal melting temperature": 60.7}
{"sequence": "RPASPSLQLL", "thermal melting temperature": 62.2}
